Test results as given in the RNAGym collection of RNA variant scans (doi:10.7554/elife.90254).
The source gives no read counts; variants with many changes may rest on few reads.

B1: LINE1-full (parent)
chain: UACGUAGGUGGUUUUCCCCUGAUAGUGCUAAGGGGGCCUGGAAGUUUGGACUGGGCAGAGCUCAACACAGCGUGGCAAAGUGGCUGUGGCUAGACUGCCUCUCUGGAUUCCUCGUCACUCAGCAGGGCAUCUCUGAGAGAAAUGCC

Variants of: B1
Assay: self-cleavage, relative activity (ratio to wild type); higher = more cleavage; in vitro, sequencing; the parent is a self-cleaving ribozyme

Variant	self-cleavage
U39A A69G A124G	0
U39C U85C U115C A140U	0
G36A A43U U46C	1.4
U39C A64U G82A A121U	0.3
U39A U73C A94G A136U	0.92
U39A A129G U134C G135A	1.37
U39C U46C U109C	0.44
U39C G70A U115A G122A	0.04
U39A U104A U132C	0.29
G35U U62C U85A A121G U134C	0.04
U39C A50G U96C	0.34
U39A A64G A77U	0.21
U39C A65U U115C C118U	0.18
U39C U87A U119C	0
U39C A64U U100C C110G U143C	0.94
G36A U115C U130A	1.57
C38G A64G A142G	0.18
C38A C71U A117G U134C U143C	0.59
U39A A77G A79G U85C	0.35
C37G C61U A117G A140G	0.05
U39C A78G U85A U108C A129U	0.13
C37G A69U A129G	0.09
G41A A57U U96C U104C U108C	0.14
G40A U62A C146U	0.03

Variant	self-cleavage
U39A U47C U52A G122A	1.59
G36C U52G G88A	0.07
U39C U130A U134C A140G	1.07
U39C A78G U115C	1.07
U39C A43G U132C	1.57
U39C G80U A92G	0.03
U39C A43U A77U A138U	0
G41A A92G A94G A136G	0.17
C37U U39C A57G U100C A136U	2.63
U39C A64G A129G	0.78
C37A U104C A117C	1.05
U39C U132A G135U	1.66
U39C A77U U100C A140G	1.91
U39G U81C G88A A94G	0
U39A G41U A121G	1.69
U39G G49A C145U	0.75
U39C U85C A94U	0.14
U39A U115A A140G	0.72
U39A A50G A79G	1.19
U39C G40U A79G	1.14
G36U U73A U115C A136G	1.93
G36C U47C A65G C71U A79G U85C C120U	0.05
U39A A64U A78G U115A A140G	0.25
C37G A50G U87C U134G	0

Variant	self-cleavage
U39A A43G C71A	0.11
G35U U52A A124G	1.32
U39A A57G A140G	0.75
U39C C131U A140G A141G	1.31
C37G U100A U104C	1.43
U39A A42G U112C	1.32
U39C G41U C51U	1.04
G36U C66U A117G	0.12
U39C U115C A129G	1.41
U39A A67U U119A U130G A138G A141U	0.13
U39A U108C U134C	1.08
U39C U91A A92G	0.08
U39C U47A U73C U112C	1.17
G36A U87A U119A	0.06
U39A A129G U132C	1.3
C37A U108C A142G	1.78
G41A G60A A129G	0.04
G36A G126A A138G	1.15
G41A A65G U115C	0.04
G41A U46C A57U	0.23
C38G A67G U85A	0.02
G40A U115C A117G	0.4
U39C A67G G97U A124G	0
G40U G49A U52C A65G U85A	0.08

Variant	self-cleavage
U39C A78G U109C U112C U143C	1.84
C37A U73C U132C	1.39
G40A A57U A121C	0.05
U39G U46C U108C	1.25
U39C U52A A64G U109C C123U	0.17
U39A A117U U130C	0.84
G40A A67U C90U	0.02
U39C A121G U143A	1.58
C38A A64G U85A A129U U132C	0.03
C37A A57U U109C	0.09
U39C G93C U115C	0
C37U A64G A138G	0.17
G36U A42G U115C	0.95
U39A U52A A78G A140G	1.11
G41U A78U U134G U143C	1.45
U39C G105U A124U U132C	1.87
C38A U47C U115C	1.87
U39C U119C C123U A141G	2.17
U39A U45G U87C	0.24
G36C A129G U132C	0
U39C G41A A121G A141G	1.4
C38A U87C A124C U134C	0.2
U39A A77G U109C	2.73
U39C A64U U115A	0.33

Variant	self-cleavage
G41A A65G U87C	0.03
G41A A64G C99U	0.16
G35U A92U U102A	0.57
U39A G93C U108C	0.07
C37G A42G A77G	0.57
C38A U45C G126A	1.43
C38U U45C U47A U62C U96C G106A G122A A141G	0
U39G A43G U102A	0.97
G40A U46C U81C U96C U134C	0.11
C38A U39A U109C U132C U134A	0.46
U39C G72A A138G	0.93
U39C C76U U87C	0.19
U39A A69U U130C	0.05
C37U A124G A142G	0.58
U39A C63A A69G	0.07
G40A A78C A107G	1.87
U39C A69G A79G A94U	0.92
U39A U91C U115A U130C	0.73
U39C A67G U134C	0.56
U39C C103U A121G	1.53
U39C U45C U52C	0
C38U A94U U100G	0.43
C38G A79G A140G	0.91
G41A A78G U96G U119C	0.07

Variant	self-cleavage
U39C G49U A69G A129G A140G	0.15
G36C U104A A140G C146U	0.38
U39C G114A C120U	1.36
U39A A67U U100C U104C C120U A138U	0.26
G36U U62A A69G A92U U115A	0.02
U39C U132C A142G	1.05
U39G U45C U108C	1.84
G36A A78G U96C	0.07
G40U U46A U73A	1.52
G36U U45A U52C U130C	0.88
C37A U87A U119C	0.06
G36U U39C A50G U52C U81A A124U	0.51
U39A A136U A138G A141G	1.36
U39A A57U U62C A77U C103U	0.07
C38U A67G C71U U115A A142G	0.12
G40A A79G U102C	1.08
G36A A107G U115C	0.82
U39C U45C A78G A140G	0.8
G36A U87C A124G A141U	0.04
U39A A94G A136G	0.18
C37U U52C U119C U134C	1.86
G36C A57G A142G	0.55
U39G U104C A121U	0.94
U39C A57U U87A A124G	0.06

Variant	self-cleavage
U39A A42G U47C	1.61
U39C U81C U102A	0.99
G36A A59G U73A U130C	0.16
U39C A50G A64U	0.39
G36C U39A U62C	0.02
U39C U45C G74U	1.22
C38G U81A G82U G97U	0.21
G36A U62C U81A U102A	0.02
U39A A43G A107G	0.56
U39A A138U A142G	1.96
C38U U45C U52A A79G U130C	0.44
U39A U62C U100A	0.06
U39C G49U A65U U81A C90A	0.03
U39A A42G U73A U81A U130C	2.25
U39A A78G U132C U134A A140G	0.18
U39A U46C A129G	0.33
U39C A57U A94U	0.05
G40A U52A A78U U112C	2.29
U39A U46A U115C U132C	2.11
U39C A78U A124G	0.42
U39C A57U U100A A138G	0.06
C37U U81A U102C U119A	2.12
U39C U62C A141G	0
